The RNAGym collection of RNA variant scans (doi:10.1073/pnas.2313332121)
This sample is rich in variants without activity.

B1: TPR 5TU (parent)
chain: GGAUCUUCUCGAUCUAACAAAAAAGACAAAUCUGCCACAAAGCUUGAGAGCAUCUUCGGAUGCAGAGGCGGCAGCCUUCGGUGGCGCGAUAGCGCCAACGUUCUCAACUAUGACACGCAAAACGCGUGCUCCGUUGAAUGGAGUUUAUCAUG

Variants of: B1
Assay: polymerase ribozyme fitness, log enrichment relative to wild type (log ratio); higher = more active; in vitro selection for triplet polymerase activity
Outline: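 One round of in vitro selection, in triplicate, was applied to PCR-built, transcribed mutant libraries of each subunit of a heterodimeric triplet polymerase ribozyme. The steps were annealing with a biotinylated primer, partner subunit and triplets, incubation frozen at −7 °C, gel excision of extended constructs, streptavidin-bead capture and RT-PCR. Fitness is the logarithm, base 2, of genotype enrichment over wild-type enrichment from inverse-variance-weighted replicate averages of Illumina-sequenced inputs and outputs, keeping genotypes with ≥10 input reads and ≥1 read per output.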

Variant | polymerase ribozyme fitness (log ratio)
GGAUCUUCUCGAUCUAACAAAAAAGACAAAUCUGCCACAAAGCUUGAGAGCAACUUCGGAUGCAGAGGCGGCAGCCUUCGGUGGCGCGAUUGCGCCAACGUUCUCAACUAUGACACGCAAAACGCGUGCUCCGUUGAAUGGAGUUUAUCAUG [U53A A91U] | ≤ -4.2
GGAUCUUCUCGAUCUAACAAAAAAGACAAAUCUGCCACAAAGCUUGAGAGCAACUUCGGAUGGAGAGGCAGCAGCCUUUGGUGGCGCCAUAGCGCCAACGUUCUCAACUAUGACACGCAAAACGCGUGCUCCGUUGAAUGGAGUUUAUCAUG [U53A C63G G70A C79U G88C] | ≤ -4.2
GGAUCUUCUCGAUCUAACAAAAAAGACAAAUCUGCCACAAAGCUUGAGAGCAACUUCGGAUGCAGAGGCGGCAGCCUUCGGUGGCGCGAUAGCGCCAACGUUCUCAUCUAUGACACGCAAAACGCGUGCUCCGUUGAAUGGAGUUUAUCAUG [U53A A107U] | -2.93
GGAUCUUCUCGAUCUAACAAAAAAGACAAAUCUGCCACAAAGCUUGAGAGCAACUUAGGAUGCAGAGGGGGCAGCCUUCGGUGGCGCGAUCGCGCCAACGUUCUCAACUAUGACACGCAAAACGCGUGCUCCGUUGAAUGGAGUUUAUCAUG [U53A C57A C69G A91C] | ≤ -4.2
GGAUCUUCUCGAUCUAACAAAAAAGACAAAUCUGCCACAAAGCUUGAGAGCUUCUUCGGAUGCAGAGGCGGCAGCCUUCGGGGUCACGAUAGCGCCAACGUUCUCAACUAUGACACGCAAAACUCGUGCUCCGCUGAAUGGAGUUUAUCAUG [A52U U82G G84U G86A G124U U134C] | ≤ -4.2
GGAUCUUCUCGAUCUAACAAAAAAGACAAAUCUGCCACAAAGCUUGAGAGCAACUUCGGAUGUAGAGGCGGCAGCCUUCGGUGGCGCGAUAGCGCCAAGGUUCUCAACUAUGACACGCAAAACGCGUGCUCCGUUGAAUGGAGUUUAUCAUG [U53A C63U C99G] | -3.81
GGAUCUUCUCGAUCUAACAAAAAAGACAAAUCUGCCACAAAGCUUGAGAGCAACUUCGGAUGUAGAGGCGGCAGCCUUGGGUGGCGAGAUAGCGACAACGGUCUCAACUAUGACACGCAAAACGCGUGCUCCGUUGAAUGGAGUUUAUCAUG [U53A C63U C79G C87A C95A U101G] | ≤ -4.2
GGAUCUUCUCGAUCUAACAAAAAAGACAAAUCUGCCACAAAGCUUGAGAGCAACUUCGGAUGCAGAGGCGGGAGCCUUCGGUGGCGCGAUAGCGCCAACGUUCUCAACUAUGACACGCAAAACGCGUUCUCCGUUGAAUGGAGUUUAUCAUG [U53A C72G G128U] | ≤ -4.2
GGAUCUUCUCGAUCUAACAAAAAAGACAAAUCUGCCACAAAGCUUGAGAGCAACUUCGGAUGCAGAGGCGGCAGUCUUCGGUGGCGCGAUAGCGCAAACGUUGUCAACUAUGACACGCAAAACGCGUGCUCCGUUGAAUGGAGUUUAUCAUG [U53A C75U C96A C103G] | ≤ -4.2
GGAUCUUCUCGAUCUAACAAAAAAGACAAAUCUGCCACAAAGCUUGAGAGCAACUUCGGAUGCAGAGGUGGCAGCCUUCGGUGGCGCGGUAGCUCUAACGUUCUCAACUAUGACUCGCAAAACGCGUGCUCCGUUGAAUGGAGUUUAGCAGG [U53A C69U A89G G94U C96U A115U U148G U151G] | ≤ -4.2
GGAUCUUCUCGAUCUAACAAAAAAGACAAAUCUGCCACAAAGCUUGAGAGCAACUUCGGAUGCAGAGGCGGCAGCCUUUGGUAGCGUGAUAGCGCCAACGUUCUCAACUAUGACACGCAAAACGCGUGCUCCGUUGAAUGGAGUUUAUCAUG [U53A C79U G83A C87U] | ≤ -4.2
GGAUCUUCUCGAUCUAACAAAAAAGACAAAUCUGCCACAAAGCUUGAGAGCAACUUCGGAUGCAGAGGCGGCAGUCUUCGGUGGUGCGAUAGCGCCAACGUUCUCAACUAUGACACGCAAAAUGAGUGCUCCGUUGAAUGGAGUUUAUCAUG [U53A C75U C85U C123U C125A] | -2.32
GGAUCUUCUCGAUCUAACAAAAAAGACAAAUCUGCCACAAAGCUUGAGAGCAACUUCGGAUGCAGAGGAGGCAGCCUUCGGAGGCGCGAUAGCGCCAACGUUCUCAACUAUGACACGCGAAACGCGUGCUCCGUUGAAUGGAGUUUAUCAUG [U53A C69A U82A A119G] | ≤ -4.2
GGAUCUUCUCGAUCUAACAAAAAAGACAAAUCUGCCACAAAGCUUGAGAGCAACUUCGGGUGCAGAGGCGGCAGCCUUCGGUGGCGCGAUAGCGCCAACGUUCUCAACUAUGGCACGCAAAACGCGCGCUCCGUUGAAUGGAGUUUAUCAUG [U53A A60G A113G U127C] | ≤ -4.2
GGAUCUUCUCGAUCUAACAAAAAAGACAAAUCUGCCACAAAGCUUGAGAGCAACUUCGGCUGCAGAGGCGGCAGCCUUCGGUGGCGCGACAGUGCCAACGUUCUCAACUAUGACACGCAAAACGCGUGCUCCGUUGAAUGGAGUUUCUCAUG [U53A A60C U90C C93U A147C] | ≤ -4.2
GGAUCUUCUCGAUCUAACAAAAAAGACAAAUCUGCCACAAAGCUUGAGAGCAACUUCGGAUGCAGAGGGGGCAGCCUUCGGUGGCUCGAUAGCGCCAACGUUCUCAACUAUGAGACGCAAAACGCGUGCUCCGUUGAAUGGAGUUUAUCAUG [U53A C69G G86U C114G] | ≤ -4.2
GGAUCUUCUCGAUCUAACAAAAAAGACAAAUCUGCCACAAAGCUUGAGAGCAACUUUGGAUGCAGAGGCGGCAGCCUUCGGUGGCGCGAUAGCGCCGACGUUCUCAACUAUGACACGCAAAACGCGUGCUCCGUUGAAUGGAGUUUAUCAUG [U53A C57U A97G] | -1.24
GGAUCUUCUCGAUCUAACAAAAAAGACAAAUCUGCCACAAAGCUUGAGAGCAACUUCGGAUGCAGAGGCGGCAGCGUUCGGUGGCGCGAUAUCGCCAACGUUCUCAACUAUGACACGCAAAACGCGAGCUCCGUUUAAUGGAGUUUAUCAUG [U53A C76G G92U U127A G136U] | ≤ -4.2
GGAUCUUCUCGAUCUAACAAAAAAGACAAAUCUGCCACAAAGCUUGAGAGCAACUUCGGAUGCAGCGGCGGCAGCCUUCGGUGGCGCGAUAGCGCCAACGUUCUCAACUAUGACACGCAAAACGCGGGCUCCGUUGAAUGGAGUUUAUCAUG [U53A A66C U127G] | ≤ -4.2

Variant | polymerase ribozyme fitness (log ratio)
GGAUCUUCUCGAUCUAACAAAAAAGACAAAUCUGCCACAAAGCUUGAGAGCAACUUCGGAUGCAGAGGCGGAAGCCUGCGGUGGCGCGAUAGCGCCAACGUUCUCAACUAUGACACGCAAAACGCGUGCUCCGUUGAAUGGAGUUGAUCAUG [U53A C72A U78G U146G] | ≤ -4.2
GGAUCUUCUCGAUCUAACAAAAAAGACAAAUCUGCCACAAAGCUUGAGAGCAACUUCGGAUGCAGAGGCGGCAGCCUUCGGUGGAGCGAUAGCGCAAACGUUCUCAACUAUGACACGCAAAACGCGUGCUCCGUUGGAUGGAGUUUAUCAUG [U53A C85A C96A A137G] | ≤ -4.2
GGAUCUUCUCGAUCUAACAAAAAAGACAAAUCUGCCACAAAGCUUGAGAGCAACUUCGGAUGCAGAGGCGGCAGCCUUAGGUGGCGCGAUAGCGCCAACGUUCUCAACUAUGACACGCAAAACGCGUGCUCCGUUGAAUGGAGUUUAUCUUG [U53A C79A A150U] | ≤ -4.2
GGAUCUUCUCGAUCUAACAAAAAAGACAAAUCUGCCACAAAGCUUGAGAGCAAUAUCGGUUGCAGAGGCGGCAGCCGUCGGUGGUGCGAUAACGCCAACGUUCUCAACUAUAACACGCAAUACGCGUGCUCCGUUGAAUGGAGUUUAUCAUG [U53A C54U U55A A60U U77G C85U G92A G112A A121U] | ≤ -4.2
GGAUCUUCUCGAUCUAACAAAAAAGACAAAUCUGCCACAAAGCUUGAGAGCAACUUCGGAUGCAGAGGCGGCAGCCUUAGGUGGCGGGAUAGCGCCAACGUUCUCAACUAUGACACGCAAAACGCGUGCUCCGUUGAAUGGAGUUUAUCAUG [U53A C79A C87G] | ≤ -4.2
GGAUCUUCUCGAUCUAACAAAAAAGACAAAUCUGCCACAAAGCUUGAGAGCAACUUCGGAUGCAGAGGCGGCAGCCUUCGGUGGCGCGAUAGCGCCAACGUUCUCAACUAUGACACGCAAAACGCGUGCUCCGUUGAAUGGAGUUUGUCAUG [U53A A147G] | -3.69
GGAUCUUCUCGAUCUAACAAAAAAGACAAAUCUGCCACAAAGCUUGAGAGCAACUUCGGAUGUAGAGGCGGCAGCCUUCGGUGGCGCGUUAGCGCCAGCGUUCUCAACUAUGACACGCAAAACGCGGGCUCCGUUGAAUGGAGUUUAUCAUG [U53A C63U A89U A98G U127G] | ≤ -4.2
GGAUCUUCUCGAUCUAACAAAAAAGACAAAUCUGCCACAAAGCUUGAGAGCAACUUCGGAUGCAGAGGCGGCGGCCUUCGGUGGUGCGAUAGCGCCAACGUUCUCAACUAUGACACGCAAAACGCGUGCUCCGUUGAAUGAAGUUUAUCAUG [U53A A73G C85U G141A] | ≤ -4.2
GGAUCUUCUCGAUCUAACAAAAAAGACAAAUCUGCCACAAAGCUUGAGAGCAACUUCGGGUGCAGAGGCGGCAGCCUUCGGUGGCGCGAUAGCGCUAACGUUCUCUACUAUGACACGCAAAACGCGUGCUCCGUUGAAGGGAGUUUAUCAUG [U53A A60G C96U A106U U139G] | -2.41
GGAUCUUCUCGAUCUAACAAAAAAGACAAAUCUGCCACAAAGCUUGAGAGCAACUUCGGAUGCAGAGGCGGCAGCAUUCGGUGGCGCGAUAACGCCAACGUUCUCAACUAUGACACGCAAAUCGCGUGCUCCGUUGAAUGGAGUUUAUCAUG [U53A C76A G92A A122U] | ≤ -4.2
GGAUCUUCUCGAUCUAACAAAAAAGACAAAUCUGCCACAAAGCUUGAGAGCUUCUUCGGAUGCAGAGGCGGCAGCCUUCGGUGGCGCGAUAGCGCCAACGUUCACAACUAUGACACGCAAAACGCGUGCUCCCUUGAAUGCAGUUGAUCAUG [A52U U104A G133C G141C U146G] | ≤ -4.2
GGAUCUUCUCGAUCUAACAAAAAAGACAAAUCUGCCACAAAGCUUGAGAGCAACUUUGGAUGCAGAGGCGGCAGCCUUCGGUGGCGGGAUAGCGCCAACGUUCUCAACUAUGACACGCAAAACACGUGCUCCGUUGAAUGGACUUUAUCAUG [U53A C57U C87G G124A G143C] | ≤ -4.2
GGAUCUUCUCGAUCUAACAAAAAAGACAAAUCUGCCACAAAGCUUGAGAGCAACUUCGGAUGCAGAGGCGGCAGCCUUCGGUGGCGCGAUAGCGCCAUCGUUCUCAACUAUGACACGCAAAACGCGUGCUCCGUUGAAUGGAGUUUAUCAUG [U53A A98U] | -1.39
GGAUCUUCUCGAUCUAACAAAAAAGACAAAUCUGCCACAAAGCUUGAGAGCAACUUCGGAUGCGGAGGCGGCAGCCUUCGGUGGCGCAAUAGCGCCAACGUUCUCAACUAUGACACGCAAAACGCGUGCUCCGUUGAAUGGAGUUUAUCAUG [U53A A64G G88A] | ≤ -4.2
GGAUCUUCUCGAUCUAACAAAAAAGACAAAUCUGCCACAAAGCUUGAGAGCAACUUUGGAUGCAGAGGCGGCAGCCUUCGGUGGCGCGAUAGCGCCAACGUUCUCAACUAUGACACGCAAAACGCGUGCUCCGUUGAAUGGACUUUAUCAUG [U53A C57U G143C] | -3.52
GGAUCUUCUCGAUCUAACAAAAAAGACAAAUCUGCCACAAAGCUUGAGAGCAACUUGGGAUGCAGAGGCGGCAGCCUGCGGUGGCGCGAUAGCGCCAACGUUCUCAACUAUGACACGCAAAACGCGUGCUCCGUUGAAUGGAGUUUAUCAUG [U53A C57G U78G] | ≤ -4.2
GGAUCUUCUCGAUCUAACAAAAAAGACAAAUCUGCCACAAAGCUUGAGAGCAACUUCGGAUGCAGAGGCGGCAGCCUUCGGUGGCGCGAUUGCGCCAACGUUCUCAACUAUGACACGCAAAACGCGUGCUCCGUUGAAUAGAGUUUGUCAUG [U53A A91U G140A A147G] | ≤ -4.2
GGAUCUUCUCGAUCUAACAAAAAAGACAAAUCUGCCACAAAGCUUGAGAGCAACUUGGGAUGCAGAGGCGGCAGCCUUCGGUGGCGCGAUAGCGCCAACGUUCUCAACUAUGACACGCAAAACGCGUGCUCCGUUGAAUGGAGUUUAUCAUG [U53A C57G] | -2.09
GGAUCUUCUCGAUCUAACAAAAAAGACAAAUCUGCCACAAAGCUUGAGAGCAACUUCGGAUGCAGAGGCGGCAGCCUUCGGUGGAGCGAUAGCGCCAACGUUCUCAACUAUGACACGCAAAACUCGUGCUCCGUUGAAUGGACUUCAUCAUG [U53A C85A G124U G143C U146C] | ≤ -4.2
